These results are taken from ChEMBL document CHEMBL4888484, “Replenishing the malaria drug discovery pipeline: Screening and hit evaluation of the MMV Hit Generation Library 1 (HGL1) against asexual blood stage Plasmodium falciparum ,using a nano luciferase reporter read-out” (2022).

Structures are written as SMILES. Among all 150,000 compounds or so, about 540 (0.36%) showed an effect of 50% or more. Some of the results follow.

The experiment has as its system Plasmodium falciparum. Nature of the experiment: Primary screen in NF54 nanoGlo assay, in single point, at 2uM, 72h; a lower Z score goes with more inhibition. It is filed as functional, Erythrocyte. As to conditions: timepoint 72 hour.
As for `Cc1cc(NC(=O)NCC(C2CC2)C2CC2)n(Cc2ccccn2)n1`, the % Inhibition – broadly, the drop in the measured response relative to a control, in per cent – is given as -15% and the Z score is 1.31.
On the same counts, the results for `C[C@@H](CN1CCOCC1)N1CCN(c2ccnc(N(C)C)n2)CC1` are -10% and 1.45.
On the same counts, the results for `CN(CC(=O)c1ccc(O)cc1)C(=O)c1cc2ccccc2n1C` are 22% and -3.16.
On the same counts, the results for `COc1cccn(Cc2noc([C@@H]3CCCO3)n2)c1=O` are -10% and 1.63.
For the compound `COc1ccc(Cl)cc1N1CCN(C(=O)c2cccs2)[C@@H](C)C1=O`, the “% Inhibition” value worked out at 8% and the Z score is on record as -1.6.
On the same counts, the results for `CCc1cc(-c2nc([C@H]3CCOC3)no2)ccn1` are -11% and 1.74.
For `CCNC(=O)Nc1ccc(-c2cn(C(F)F)nc2C)cc1`, the “% Inhibition” value turned out to be 7% and the Z score is -0.89.
On the same counts, the results for `CC(C)Nc1ncccc1S(C)(=O)=O` are -12% and 1.56.
On the same counts, the results for `CC(C)N(CC(N)=O)Cc1ccsc1` are 32% and -3.58.
On the same counts, the results for `CN(C(=O)OC(C)(C)C)C1(C(=O)N2CC[C@](C)(C(N)=O)C2)CCC1` are -11% and 1.45.
On to `O=C(Cn1nc2n(c1=O)CCCC2)Nc1cccc(C(F)(F)F)c1`, for which the “% Inhibition” value is -11% and the Z score was 1.49.
As for `Cc1ccccc1Cc1nnn(C[C@H](O)COCc2ccco2)n1`, the “% Inhibition” value is -11% and the Z score came to 1.41.
On the same counts, the results for `N#Cc1cc(S(=O)(=O)N[C@H]2CCCS(=O)(=O)C2)ccc1Cl` are -19% and 1.71.
On the same counts, the results for `CC(C)n1ccc(C(=O)N(C)C[C@@H](O)Cc2ccccc2)n1` are -2% and 0.32.
On the same counts, the results for `Cn1cc(C(O)CNC2CC(OC(C)(C)C)C23CCC3)cn1` (stereo not given) are -8% and 1.05.
For `Cc1nc(C)c(CC(=O)N2CCC3(CC2)Cc2cn(nn2)CCCOc2ccc(cc2)CCNC3=O)c(=O)[nH]1`, the “% Inhibition” value amounted to 4% and the Z score is given as -0.7.
As to `CC(C)(C)C(=O)NCc1nc([C@H]2CCOC2)no1`, the “% Inhibition” value was -9% and the Z score was determined as 1.27.
On the same counts, the results for `Nc1n[nH]c2nccc(-c3ccccc3)c12` are -14% and 1.6.
On the same counts, the results for `COc1ccc(-c2cc3c(=O)n(Cc4ccccc4Cl)ccn3n2)cc1` are 0% and 0.01.
Take `Cc1nc(CCCC(=O)N2CC[C@H](CCO)C2)cs1`: the “% Inhibition” value turned out to be 0% and the Z score was determined as 0.01.
For the compound `Cc1ccc2c(c1)CCCN2C(=O)c1cccc(-n2cnnn2)c1`, the “% Inhibition” value is listed as -7% and the Z score stood at 1.36.
On the same counts, the results for `CNC(=O)[C@H]1CCCN(c2nc3ncn(CC(=O)Nc4ccccc4)c(=O)c3s2)C1` are -31% and 2.71.
For the compound `Cc1cccc2c1C(C)CC2NCCN1C(=O)CNC1=O` (stereo not given), the “% Inhibition” value was -3% and the Z score was determined as 0.41.
On the same counts, the results for `C=CCNC(=O)N[C@H]1[C@H](O)[C@@H](n2ccnc2)[C@@H]2OC[C@H]1O2` are 27% and -3.1.
With `CC(C)N(Cc1cnn(C)c1)C(=O)C[C@@H](c1ccccc1)c1ccccc1F`, the “% Inhibition” value was -8% and the Z score came to 1.01.
On the same counts, the results for `CC(C)C1CCN(S(=O)(=O)c2sc3c(c2C(=O)O)CCNC3)CC1` are -2% and 0.23.
On the same counts, the results for `C[C@H]1CN(CC(=O)N(C)C2CC2)c2ccccc2CN1C(=O)OC(C)(C)C` are -12% and 1.21.
On the same counts, the results for `O=C1C[C@@H](c2ccc(Cl)cc2)N=C(NC(=O)c2ccc(Oc3ccccc3)cc2)N1` are -4% and 0.44.
Take `COc1ccc(/C=C/c2ccnc(N3CCCC3)n2)cc1`: the “% Inhibition” value was determined as 6% and the Z score was -1.06.
On the same counts, the results for `CC1(C)CN(Cc2cnn(C3(C)CCS(=O)(=O)C3)c2)CCC1C(F)(F)F` (stereo not given) are -16% and 1.38.
On the same counts, the results for `Cc1ccccc1C1CC1C(=O)NCc1n[nH]c(=O)[nH]1` (stereo not given) are -7% and 0.97.
On the same counts, the results for `CNC(=O)CN(C)Cc1ccn(C(C)C)n1` are -7% and 0.97.
As to `CC1CC1c1ccc(CNC(=O)N(C)C(C)CS(C)(=O)=O)o1` (stereo not given), the “% Inhibition” value was found to be 17% and the Z score is -1.55.
On the same counts, the results for `CO[C@@H]1CC[C@@]2(OC)CCN(Cc3ccccc3OCCO)[C@H]2C1` are -4% and 0.5.
On to `O=C(Cc1ccccc1)Nc1ccc2oc(-c3ccc4ccccc4c3)nc2c1`, for which the “% Inhibition” value was -14% and the Z score was determined as 2.67.
On the same counts, the results for `C[C@H]1CCCCN1C(=O)c1ccc(NC(=O)Nc2cnn(CCO)c2)cc1` are -18% and 2.08.
On the same counts, the results for `Cc1ccc([C@H](CNC(=O)COc2cc(C)c(Cl)c(C)c2)N2CCCC2)o1` are 2% and -0.33.
On to `Cc1noc(C)c1CCC(=O)N1CCC[C@H](OCCO)C1`, for which the “% Inhibition” value was 0% and the Z score was 0.06.
Regarding `O=S(=O)(c1cnccc1C(F)(F)F)N1CC2(CC2)C1`, the “% Inhibition” value was -4% and the Z score was determined as 0.7.
On the same counts, the results for `C[C@@H](C(=O)NC(=O)NC1CC1)N(C)Cc1cnn(-c2ccccc2)c1` are -13% and 1.57.
On the same counts, the results for `CC1(O)C2CCCC2=NN1c1nc2ccccc2s1` (stereo not given) are 15% and -1.92.
On the same counts, the results for `CC(NCC(CCO)c1ccccc1)C(C)NC(=O)OC(C)(C)C` (stereo not given) are -9% and 1.5.
Regarding `Cc1sc(N)nc1-c1ccc2c(c1)CCC2`, the “% Inhibition” value is recorded as -13% and the Z score is 1.92.
`O=C(c1ccccc1O)N1CCc2[nH]nc(-c3cccc4ccccc34)c2C1`: the “% Inhibition” value was -1% and the Z score was found to be 0.11.
On the same counts, the results for `O=C([C@H](Cc1ccccc1)N1Cc2ccccc2C1=O)N1CC=C(c2ccccc2)CC1` are -19% and 2.39.
Turning to `CCC[C@H](C)n1ccnc1-c1cccc(C)n1`, the “% Inhibition” value is -5% and the Z score was 0.84.
`Cc1ccc(Oc2cccc(C(=O)Nc3ccc(C(N)=O)cc3)c2)nn1`: the “% Inhibition” value is -22% and the Z score is given as 1.94.
On the same counts, the results for `COc1ccc(CNC(=O)Cc2nnc(-c3cccs3)o2)cc1` are -13% and 1.26.
In the case of `CN(C)c1ccc(C2=NNC(c3cccs3)=Nc3ccccc32)cc1`, the “% Inhibition” value is reported as -2% and the Z score is recorded as 0.24.
Consider `c1ccc(-c2cnn3cc(CN4CC[C@H]4c4ccccc4)cnc23)cc1`, for which the “% Inhibition” value is given as -2% and the Z score came out at 0.23.
`C[C@H](C(=O)N1CCCC1(CO)CO)C1CC1`: the “% Inhibition” value was -8% and the Z score came out at 1.28.
On the same counts, the results for `C[C@@H](c1ccccc1Cl)n1ccnc1-c1ccc(S(C)(=O)=O)cc1` are 7% and -1.33.
On the same counts, the results for `Cc1cnc(C)c(N2C[C@H](O)[C@@H](N3CCN(C)CC3)C2)n1` are 7% and -1.05.
For `O=C1C[C@H](Cc2ccccc2)CN1Cc1cncnc1`, the “% Inhibition” value is recorded as -3% and the Z score stood at 0.47.
With `CC(=O)NCc1ccc(C(=O)Nc2ccc3nnc(C(C)C)n3c2)s1`, the “% Inhibition” value was found to be 3% and the Z score is listed as -0.55.
